Source: PubChem BioAssay AID743279 (National Center for Advancing Translational Sciences (NCATS), 2014)
About 17,000 (4.7%) of roughly 360,000 compounds were called active. Inconclusive means that the source gave no clear call. Such entries were picked first, then a sample of the others. Cut-off read from the data, not from the text of the source: active = activity change below about -50%; inconclusive = mostly about -30% to -49%; inactive = weaker than that.

test: qHTS for Inhibitors of Inflammasome Signaling: IL-1-beta AlphaLISA Primary Screen; details: THP-1 LPS/ATP IL-1B secretion, 16 h; at 57.5 µM, stronger effect = lower value
How it was run: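 THP-1 cells pretreated 1 hr with compounds (up to 57.5 uM final), then stimulated with LPS (250 ng/mL final) plus ATP (1.25 mM final); secreted IL-1B measured by AlphaLISA after 16 hr, decreased signal indicating inhibition.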
% is set by controls: 0 for no effect and ±100 for the full control effect.

| Structure (SMILES) | activity change |
| --- | --- |
| O=C(c1ccc2c(c1)OCO2)C1CCCN(C2CCN(CCc3ccccc3)CC2)C1 (configuration not stated) | active: -76.5% |
| Cc1ccc2oc(C(=O)N3CCCCCC3)c(C)c2c1 | inconclusive: -43.7% |
| CC1=C(C(=O)N2CCOCC2)CC(CC(=O)NCCCN(C)C)C(=O)N1CCC1=CCCCC1 (configuration not stated) | inconclusive: -31.9% |
| CC[C@@]12C(=O)N(c3cccc(C)c3)C(=O)N1[C@H](c1ccc(Br)cc1)[C@@H]1C(=O)N(C(C)(C)C)C(=O)[C@@H]12 | inconclusive: -34.9% |
| CCCN(Cc1ccccc1)C(=S)Nc1ccc(OCC)cc1 | active: -58.5% |
| CCCCN1C(=O)NC2NC(=O)NC21 (configuration not stated) | active: -91.7% |
| CC(C)/C=C1\CC/C(=C\c2ccc(N(C)C)cc2)C1=O | inconclusive: -30% |
| COc1cc(/C=C2\SC(=Nc3ccc(O)cc3)NC2=O)cc(OC)c1OC | inactive: 19.5% |
| c1ccc2c(N3CCCCCC3)nc(-c3ccncc3)nc2c1 | inconclusive: -38.3% |
| OC1(c2ccc(F)cc2)CN(c2ccccc2)C2=[N+]1CCS2 (configuration not stated) | active: -51.2% |
| O=C(c1ccccc1)N1CCN(Cc2ccccc2)CC1 | inconclusive: -30.1% |
| CC(C)CCNC(=O)c1ccc2c(Cl)c3c(nc2c1)CCC3 | inconclusive: -47.6% |
| O=C(CSc1nc2nn(-c3ccccc3)c(=O)c-2c2n1CCCCC2)NCCc1ccccc1 | inconclusive: -45.2% |
| COc1ccc(OC2C(=O)N(Cc3ccc4c(c3)OCO4)C2c2cccs2)cc1 (configuration not stated) | active: -81.2% |
| O=C(COc1coc(CN2CCc3ccccc3C2)cc1=O)Nc1ccccc1F | inactive: -11% |
| CC(=O)Cc1nsc(NC(=O)c2ccc(-c3ccccc3Cl)o2)n1 | inactive: -0.159% |
| COc1ccc(Nc2cc(C)nc(NCc3ccccc3)n2)cc1 | active: -98.7% |
| O=C(CCl)Nc1cccc(CP(=O)(c2ccccc2)c2ccccc2)c1 | active: -99.8% |
| O=C(Nc1nc(-c2ccncc2)cs1)c1ccc(F)cc1 | inconclusive: -36.2% |
| O=C(/C(=C/c1cccnc1)n1ccnc1)c1ccc(Cl)cc1Cl | inconclusive: -42.1% |
| CCN1C[C@@H]2[C@@H]3C(=O)N(C)C(=O)[C@@H]3[C@](CC)(C1=O)N2C(=O)c1ccc(C(C)(C)C)cc1 | inactive: 19.3% |
| Cc1cc(C(=O)N/N=C/c2c(C)[nH]n(-c3ccccc3)c2=O)n[nH]1 | inactive: -0.218% |

| Structure (SMILES) | activity change |
| --- | --- |
| Cc1ccc2nc(/C(C#N)=C/c3cn[nH]c3-c3ccc(F)cc3)[nH]c2c1 | inconclusive: -48.3% |
| O=C(CN1CCN(c2ncccn2)CC1)N(Cc1ccccc1)c1ccc(F)cc1 | inconclusive: -32.3% |
| Cc1cc(=O)n(C(NC(=O)c2ccccc2)C(=O)c2ccccc2)cn1 (configuration not stated) | inactive: 25.6% |
| CC1C(=O)N(Cc2cn(CC3CCCCC3)nn2)CCS(=O)(=O)N1Cc1ccc(-c2ccncc2)cc1 (configuration not stated) | inconclusive: -33.5% |
| CC(=O)Nc1ccc(/C=N/NC(=O)CCN2CCN(c3ccccc3)CC2)cc1 | inactive: -21.3% |
| CCOC(=O)c1ccccc1NC(=O)c1cn(-c2ccc(C)c(C)c2)c(=O)c2ccccc12 | inconclusive: -31.2% |
| COc1cc(/C=N/NC(=O)c2cccc(NC(=O)c3ccccc3)c2)ccc1O | inconclusive: -44% |
| CCc1ccc(CN2CCN(C(=O)c3cccc(OC)c3OC)CC2)cc1 | inconclusive: -37.8% |
| CC1(C)c2ssc(=S)c2-c2ccccc2N1C(=O)CSC1=NCCS1 | inconclusive: -47.9% |
| CC(C)c1cc(C(=O)N/N=C/C(Br)=C/c2ccccc2)n[nH]1 | active: -78.1% |
| Cc1ccc(CNC(=O)CCSCc2ccc(C)cc2)cc1 | inactive: 6.83% |
| N=c1n(Cc2ccc(Cl)cc2)c2ccccc2n1CC(O)COc1ccccc1 (configuration not stated) | active: -97.5% |
| COc1cc2cc(C(=O)NCCc3c[nH]c4ccccc34)c(N)nc2cc1OC | inconclusive: -31% |
| O=C(NC1CCCCC1)N1CCN(c2nc(-c3ccccc3)cs2)CC1 | active: -64.3% |
| Cc1cc2nc3c(=O)n(CCc4ccccc4)c(=O)[nH]c3nc2cc1N | inconclusive: -35.3% |
| Cc1[nH]nc2c1C(c1cc(Br)cs1)C(C#N)=C(N)O2 (configuration not stated) | active: -101% |
| CCOc1ccccc1NC(=O)c1cccc(NC(=O)C2CCCC2)c1 | inconclusive: -46.6% |
| Cc1nc(Nc2cc(F)ccc2C)c2nnn(Cc3ccccc3)c2n1 | inconclusive: -33.1% |
| CCC(=O)NC(Cc1ccccc1)c1ccc2c(c1)OCCCO2 (configuration not stated) | inactive: 5% |
| CCOc1ccc(N=C2NC(=O)/C(=C/C(=O)OC)S2)cc1 | inconclusive: -44.8% |
| COc1ccc2oc(C(=O)OC(C)C(=O)Nc3ccc(N4CCOCC4)cc3)c(C)c2c1 (configuration not stated) | inconclusive: -33.2% |
| Cc1ccccc1NC(=O)CCN1CCN(C/C=C/c2ccccc2)CC1 | inconclusive: -35.6% |

| Structure (SMILES) | activity change |
| --- | --- |
| N#Cc1ccc(CN2CCN(CC(=O)NCCc3ccc(Cl)cc3Cl)CC2)cc1 | inconclusive: -30.2% |
| O=C(CCCN1C(=O)NC2(CCCC2)C1=O)NCc1ccccc1 | inactive: 28.8% |
| O=C(N/N=C/c1cn(-c2ccccc2)nc1-c1ccc(F)cc1)c1ccc2c(c1)OCO2 | inconclusive: -34.7% |
| O=C(Nc1cc(Cl)cc(Cl)c1)c1cccc(OC(F)F)c1 | active: -94.8% |
| CC(NC(=O)Nc1ccccc1Cl)c1ccc2c(c1)OCO2 (configuration not stated) | inactive: -2.61% |
| O=C(c1ccc(N2CCCCC2)c([N+](=O)[O-])c1)N(Cc1ccccc1)c1ccccn1 | inconclusive: -32.6% |
| CC[C@@H](NCCCn1cnc2c(SC)ncnc21)c1ccccc1 | inactive: 0.449% |
| CCN1C(=O)[C@H]2[C@@H](c3ccc(-c4cccc(Cl)c4)cc3)N[C@@](Cc3ccccc3)(C(=O)OC)[C@H]2C1=O | inconclusive: -31.4% |
| C[C@H]1CN([C@@H](C)CO)C(=O)Cc2cc(NC(=O)Nc3ccccc3)ccc2O[C@H]1CN(C)Cc1ccccc1 | active: -71.7% |
| CCOc1cccc(N2CCN(CCNC(=O)Nc3ccc(C)cc3)CC2)c1C | active: -68% |
| O=C(NC(c1ccc(Cl)cc1)c1cnccn1)C1CCN(CCCOc2ccccc2)CC1 (configuration not stated) | active: -58.4% |
| COc1ccc(S(=O)(=O)N2CCN(C3CC4CCC3C4)CC2)cc1 (configuration not stated) | inconclusive: -30.5% |
| Cc1ccc(NC(=O)Cc2ccc(Cl)cc2)cc1S(=O)(=O)N1CCCCCC1 | inconclusive: -33% |
| COc1cc(OC)c2c(c1)OC(=O)CC2c1ccc(C)cc1 (configuration not stated) | inactive: -12.1% |
| Cc1cc(NC(=O)CSc2cn(CCNC(=O)c3ccc(Cl)cc3)c3ccccc23)no1 | inconclusive: -34.5% |
| Cc1ccccc1C(=O)N/N=C/c1ccc([N+](=O)[O-])s1 | active: -64.7% |
| Cc1cc(C)nc(NC(N)=NC(C)c2ccccc2)n1 (configuration not stated) | inconclusive: -30.8% |
| COc1cc(OC)c(C(=O)O/N=C(\N)c2ccc(C)cc2)cc1OC | inconclusive: -41.7% |
| CCN(CC)S(=O)(=O)c1ccc(N2CCCCC2)c(NC(=O)C2CCN(C(=O)c3ccc(F)cc3)CC2)c1 | inconclusive: -46.3% |
| Cc1cnn(C(=O)c2cc(-c3ccccc3)nc3ccccc23)c1 | inactive: 4.32% |
| CCOC(=O)c1c(NC(=O)/C=C/C(=O)O)sc(C)c1-c1ccc(F)cc1 | active: -101% |
| Cc1cc(NC(=O)Nc2ccc(F)cc2F)n(C)n1 | inactive: -10.7% |

| Structure (SMILES) | activity change |
| --- | --- |
| CNC(=O)c1ccc2cc(OC)c(OC)cc2c1 | inconclusive: -39.8% |
| CCN1CCCC1CNc1ncnc2c1[nH]c1ccc(F)cc12 (configuration not stated) | active: -94.3% |
| COc1cc(CN2CCN(Cc3ccc4cc(F)ccc4n3)CC2CCO)cc(OC)c1 (configuration not stated) | inconclusive: -44.4% |
| O=C1NC[C@@H](Cc2cccc3ccccc23)N(CC2CCCCC2)C1=O | inconclusive: -38% |
| Nc1c(C(=O)NC2CC2)sc2nc3c(c(-c4ccco4)c12)CC/C3=C/c1ccco1 | active: -74.7% |
| Cn1cccc1C(=O)NC(=O)COC(=O)c1cc(S(=O)(=O)N2CCCCC2)ccc1Cl | inactive: 32.3% |
| O=C(Nc1ccc(Cl)c(Cl)c1)Nc1ccc(Br)cc1F | inconclusive: -42.3% |
| COc1ccc(C(=O)Nc2cccc(C)n2)cc1S(=O)(=O)N1CCCc2ccccc21 | inconclusive: -37.5% |
| Oc1c(Br)cc(C2N=C(c3ccccc3)NO2)cc1Br (configuration not stated) | inactive: 5.57% |
| CCN1C(=O)CSc2ccc(C(=O)NCc3ccccc3)cc21 | inactive: 13.3% |
| CCOc1ccc2oc(C(=O)NC3CCN(Cc4ccccc4)CC3)c(C)c2c1 | active: -63.6% |
| CC(C)=C1SC(N2CCN(c3ccc(Cl)cc3)CC2)=NC1=O | active: -60.4% |
| Cn1nccc1C(=O)Oc1cccc(/C=N/NC(=O)c2ccccc2O)c1 | inactive: 1.98% |
| CCCN(CCC)CCCNC(=S)Nc1ccc2nc(N3CCCC3)cc(C)c2c1 | inconclusive: -44% |
| O=C(COC(=O)C1=COCCO1)NCc1ccc(F)cc1 | inactive: 24.5% |
| N/C(=N\OC(=O)c1ccc2c(c1)OCO2)c1ccncc1 | active: -53.5% |
| O=C(NC1CCC(=O)N(CCSc2ccccc2)CC1)OCc1ccccc1 (configuration not stated) | inactive: 15.4% |
| Cc1ccc(C)c(N(CC(=O)NC2CCCC2)C(=O)c2oc(C(C)(C)C)cc2C)c1 | inconclusive: -34.9% |
| COc1ccc(-n2c(Cc3ccccc3)nnc2SCC(=O)N2CCCc3ccccc32)cc1 | inconclusive: -37.7% |
| CCCn1c(=O)c2c(C(F)(F)F)cc(-c3ccco3)nc2n(CCC)c1=O | inactive: 12.1% |
| O=C(CSc1nnc(-c2ccc(F)cc2)c2ccccc12)Nc1cccc(Cl)c1 | active: -95.2% |
